# Laboratory results taken from the supplement of paper PMC8728848.
# The list shows a part of the results.
# Assays:
# Assay in all cases: glycan array binding signal (z-score within array); higher = stronger binding
# Settings in all cases: glycan notation: IUPAC condensed, linker removed
# [1] = target: Gal(b1-4)GlcNAc(b1-6)[Gal(b1-3)]GalNAc
# In short: (§1)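 The binding signal is a Z-score computed within each array. Data were drawn from 3228 arrays in the Consortium for Functional Glycomics database, restricted to those with a known protein sequence. Scores were averaged over arrays of the same protein sequence at different concentrations or buffers, and over linkers, and negative values can be taken as non-binding.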
# [2] = target: Gal(b1-4)GlcNAc(b1-6)[Gal(b1-4)GlcNAc(b1-3)]GalNAc
# In short: as §1
# [3] = target: Gal(b1-4)GlcNAc6P
# In short: as §1
# [4] = target: Gal(b1-6)Gal
# In short: as §1
# [5] = target: Gal3S(b1-3)GalNAc
# In short: as §1
# [6] = target: Gal3S(b1-3)GlcNAc
# In short: as §1
# [7] = target: Gal3S(b1-3)[Fuc(a1-4)]GlcNAc
# In short: as §1
# [8] = target: Gal3S(b1-4)Glc
# In short: as §1
# [9] = target: Gal3S(b1-4)Glc6S
# In short: as §1
# [10] = target: Gal3S(b1-4)GlcNAc
# In short: as §1
# [11] = target: Gal3S(b1-4)GlcNAc6S
# In short: as §1
# [12] = target: Gal3S(b1-4)[Fuc(a1-3)]Glc6S
# In short: as §1
# [13] = target: Gal3S(b1-4)[Fuc(a1-3)]GlcNAc
# In short: as §1
# [14] = target: Gal3S(b1-4)[Fuc(a1-3)]GlcNAc6S
# In short: as §1
# [15] = target: Gal3S4S(b1-4)GlcNAc
# In short: as §1
# [16] = target: Gal3S6S(b1-4)GlcNAc
# In short: as §1
# [17] = target: Gal3S6S(b1-4)GlcNAc6S
# In short: as §1
# [18] = target: Gal4S(b1-4)GlcNAc
# In short: as §1
# [19] = target: Gal4S6S(b1-4)GlcNAc
# In short: as §1
# [20] = target: Gal6P(b1-4)GlcNAc
# In short: as §1
# [21] = target: Gal6S(b1-3)GlcNAc
# In short: as §1
# [22] = target: Gal6S(b1-3)GlcNAc6S
# In short: as §1
# [23] = target: Gal6S(b1-4)Glc
# In short: as §1
# [24] = target: Gal6S(b1-4)Glc6S
# In short: as §1
# [25] = target: Gal6S(b1-4)GlcNAc
# In short: as §1
# [26] = target: Gal6S(b1-4)GlcNAc6S
# In short: as §1
# [27] = target: GalNAc(a1-3)Gal
# In short: as §1
# [28] = target: GalNAc(a1-3)GalNAc
# In short: as §1
# [29] = target: GalNAc(a1-3)GalNAc(a1-3)Gal(a1-4)Gal(b1-4)GlcNAc
# In short: as §1
# [30] = target: GalNAc(a1-3)GalNAc(b1-3)Gal(a1-4)Gal(b1-4)Glc
# In short: as §1
# [31] = target: GalNAc(a1-3)GalNAc(b1-3)Gal(a1-4)Gal(b1-4)GlcNAc
# In short: as §1
# [32] = target: GalNAc(b1-3)Gal
# In short: as §1
# [33] = target: GalNAc(b1-3)Gal(a1-4)Gal(b1-4)GlcNAc
# In short: as §1
# [34] = target: GalNAc(b1-3)Gal(a1-4)Gal(b1-4)GlcNAc(b1-3)Gal(b1-4)Glc
# In short: as §1
# [35] = target: GalNAc(b1-3)Gal(a1-6)Gal(b1-4)Glc
# In short: as §1
# [36] = target: GalNAc(b1-3)GalNAc
# In short: as §1
# [37] = target: GalNAc(b1-3)GlcNAc
# In short: as §1
# [38] = target: GalNAc(b1-4)Gal(b1-4)Glc
# In short: as §1
# [39] = target: GalNAc(b1-4)GlcNAc
# In short: as §1
# [40] = target: GalNAc(b1-4)GlcNAc(b1-2)Man
# In short: as §1
# [41] = target: GalNAc(b1-4)GlcNAc(b1-2)Man(a1-3)[GalNAc(b1-4)GlcNAc(b1-2)Man(a1-6)]Man(b1-4)GlcNAc(b1-4)GlcNAc
# In short: as §1
# [42] = target: GalNAc(b1-4)GlcNAc(b1-3)GalNAc(b1-4)GlcNAc
# In short: as §1
# [43] = target: GalNAc(b1-4)GlcNAc6S
# In short: as §1
# [44] = target: GalNAc(b1-6)GalNAc
# In short: as §1
# [45] = target: GalNAc3S(b1-4)GlcNAc
# In short: as §1
# [46] = target: GalNAc3S(b1-4)GlcNAc3S
# In short: as §1
# [47] = target: GalNAc3S(b1-4)[Fuc(a1-3)]GlcNAc
# In short: as §1
# [48] = target: GalNAc4S6S(b1-4)GlcNAc
# In short: as §1
# [49] = target: GalNAc6S(b1-4)GlcNAc
# In short: as §1
# [50] = target: Glc(a1-4)Glc
# In short: as §1
# [51] = target: Glc(a1-4)Glc(a1-4)Glc(a1-4)Glc
# In short: as §1
# [52] = target: Glc(a1-6)Glc(a1-6)Glc
# In short: as §1
# [53] = target: Glc(a1-6)Glc(a1-6)Glc(a1-6)Glc
# In short: as §1
# [54] = target: Glc(b1-4)Glc
# In short: as §1
# [55] = target: Glc(b1-6)Glc
# In short: as §1
# [56] = target: GlcA(b1-3)Gal
# In short: as §1
# [57] = target: GlcA(b1-3)GlcNAc
# In short: as §1
# [58] = target: GlcA(b1-6)Gal
# In short: as §1
# [59] = target: GlcA3S(b1-3)Gal(b1-4)GlcNAc(b1-2)Man
# In short: as §1
# [60] = target: GlcA3S(b1-3)Gal(b1-4)GlcNAc(b1-3)Gal(b1-4)Glc
# In short: as §1
# [61] = target: GlcNAc(a1-3)Gal(b1-4)GlcNAc
# In short: as §1
# [62] = target: GlcNAc(a1-4)Gal(b1-3)GlcNAc
# In short: as §1
# [63] = target: GlcNAc(a1-4)Gal(b1-4)GalNAc
# In short: as §1
# [64] = target: GlcNAc(a1-4)Gal(b1-4)GlcNAc
# In short: as §1
# [65] = target: GlcNAc(a1-4)Gal(b1-4)GlcNAc(b1-3)Gal(b1-4)Glc
# In short: as §1
# [66] = target: GlcNAc(a1-4)Gal(b1-4)GlcNAc(b1-3)Gal(b1-4)GlcNAc
# In short: as §1
# [67] = target: GlcNAc(a1-4)Gal(b1-4)GlcNAc(b1-3)Gal(b1-4)GlcNAc(b1-3)Gal(b1-4)GlcNAc
# In short: as §1
# [68] = target: GlcNAc(a1-4)Gal(b1-4)GlcNAc(b1-3)Gal(b1-4)[Fuc(a1-3)]GlcNAc(b1-3)Gal(b1-4)[Fuc(a1-3)]GlcNAc
# In short: as §1
# [69] = target: GlcNAc(a1-6)Gal(b1-4)GlcNAc
# In short: as §1
# [70] = target: GlcNAc(b1-2)Gal(b1-3)GalNAc
# In short: as §1
# [71] = target: GlcNAc(b1-2)Man(a1-3)[GlcNAc(b1-2)Man(a1-6)]Man(b1-4)GlcNAc(b1-4)GlcNAc
# In short: as §1
# [72] = target: GlcNAc(b1-2)Man(a1-3)[GlcNAc(b1-2)Man(a1-6)]Man(b1-4)GlcNAc(b1-4)[Fuc(a1-6)]GlcNAc
# In short: as §1
# [73] = target: GlcNAc(b1-2)Man(a1-3)[GlcNAc(b1-4)][GlcNAc(b1-2)Man(a1-6)]Man(b1-4)GlcNAc(b1-4)GlcNAc
# In short: as §1
# [74] = target: GlcNAc(b1-2)Man(a1-3)[GlcNAc(b1-4)][GlcNAc(b1-2)Man(a1-6)]Man(b1-4)GlcNAc(b1-4)[Fuc(a1-6)]GlcNAc
# In short: as §1
# [75] = target: GlcNAc(b1-2)[GlcNAc(b1-4)]Man(a1-3)[GlcNAc(b1-2)Man(a1-6)]Man(b1-4)GlcNAc(b1-4)GlcNAc
# In short: as §1
binder,measurement,setting,value
AMA (Arum maculatun) (protein) MAKLLLLLLLPAIVGLAVPRSAAAVGSNYMLSGETLNTDGRLTNGELTLIMQVDCNLVLYHGGWQSNTANNGRDCKLTLTDFGELVIKSGTGSTVWSSGSKQSMKGNYAAVVHPEGRLVIYGPSVFKINPSGAGLNGLPLRNIPLTNNMLFSGQVLYGDGTLSARNHKLVMQGDCNMVLYGGKYGWQSNTHGNGKYCFAMLTHKGELVIRDDDFKSVWSSKSSSKQGDYVFILQDDSLAIIYGPAVFSTGSKKMISMVTN,glycan array binding signal (z-score),[1],-0.212
same,glycan array binding signal (z-score),[2],-0.208
same,glycan array binding signal (z-score),[3],-0.214
same,glycan array binding signal (z-score),[4],-0.208
same,glycan array binding signal (z-score),[5],-0.207
same,glycan array binding signal (z-score),[6],-0.209
same,glycan array binding signal (z-score),[7],-0.213
same,glycan array binding signal (z-score),[8],-0.211
same,glycan array binding signal (z-score),[9],-0.206
same,glycan array binding signal (z-score),[10],-0.212
same,glycan array binding signal (z-score),[11],-0.214
same,glycan array binding signal (z-score),[12],-0.176
same,glycan array binding signal (z-score),[13],-0.203
same,glycan array binding signal (z-score),[14],-0.21
same,glycan array binding signal (z-score),[15],-0.21
same,glycan array binding signal (z-score),[16],-0.213
same,glycan array binding signal (z-score),[17],-0.216
same,glycan array binding signal (z-score),[18],-0.214
same,glycan array binding signal (z-score),[19],-0.219
same,glycan array binding signal (z-score),[20],-0.231
same,glycan array binding signal (z-score),[21],-0.217
same,glycan array binding signal (z-score),[22],-0.216
same,glycan array binding signal (z-score),[23],-0.215
same,glycan array binding signal (z-score),[24],-0.217
same,glycan array binding signal (z-score),[25],-0.215
same,glycan array binding signal (z-score),[26],-0.212
same,glycan array binding signal (z-score),[27],-0.103
same,glycan array binding signal (z-score),[28],-0.209
same,glycan array binding signal (z-score),[29],-0.225
same,glycan array binding signal (z-score),[30],-0.203
same,glycan array binding signal (z-score),[31],-0.187
same,glycan array binding signal (z-score),[32],-0.217
same,glycan array binding signal (z-score),[33],-0.206
same,glycan array binding signal (z-score),[34],-0.214
same,glycan array binding signal (z-score),[35],-0.217
same,glycan array binding signal (z-score),[36],-0.214
same,glycan array binding signal (z-score),[37],-0.219
same,glycan array binding signal (z-score),[38],-0.203
same,glycan array binding signal (z-score),[39],-0.207
same,glycan array binding signal (z-score),[40],-0.217
same,glycan array binding signal (z-score),[41],0.184
same,glycan array binding signal (z-score),[42],-0.22
same,glycan array binding signal (z-score),[43],-0.222
same,glycan array binding signal (z-score),[44],-0.223
same,glycan array binding signal (z-score),[45],-0.22
same,glycan array binding signal (z-score),[46],-0.217
same,glycan array binding signal (z-score),[47],-0.216
same,glycan array binding signal (z-score),[48],-0.215
same,glycan array binding signal (z-score),[49],-0.222
same,glycan array binding signal (z-score),[50],-0.218
same,glycan array binding signal (z-score),[51],-0.21
same,glycan array binding signal (z-score),[52],-0.22
same,glycan array binding signal (z-score),[53],-0.208
same,glycan array binding signal (z-score),[54],-0.212
same,glycan array binding signal (z-score),[55],-0.203
same,glycan array binding signal (z-score),[56],-0.204
same,glycan array binding signal (z-score),[57],-0.214
same,glycan array binding signal (z-score),[58],-0.211
same,glycan array binding signal (z-score),[59],-0.218
same,glycan array binding signal (z-score),[60],-0.212
same,glycan array binding signal (z-score),[61],-0.207
same,glycan array binding signal (z-score),[62],-0.2
same,glycan array binding signal (z-score),[63],-0.204
same,glycan array binding signal (z-score),[64],-0.211
same,glycan array binding signal (z-score),[65],-0.213
same,glycan array binding signal (z-score),[66],-0.205
same,glycan array binding signal (z-score),[67],-0.206
same,glycan array binding signal (z-score),[68],-0.201
same,glycan array binding signal (z-score),[69],-0.195
same,glycan array binding signal (z-score),[70],-0.217
same,glycan array binding signal (z-score),[71],6.01
same,glycan array binding signal (z-score),[72],-0.113
same,glycan array binding signal (z-score),[73],-0.23
same,glycan array binding signal (z-score),[74],-0.206
same,glycan array binding signal (z-score),[75],7.69
